Measurements: publication PMC4336329 (PLoS ONE, 2015)
The campaign covered roughly 310,000 compounds. About 2,200 (0.71%) showed an effect of 50% or more. The effect is printed as a negative number. The list shows a part of the results.

target: human ether-à-go-go-related gene (hERG) potassium channel (human, UniProt Q12809); experiment: primary screen, population patch clamp on CHO cells stably expressing hERG
Sequence (Q12809 whole entry, looked up): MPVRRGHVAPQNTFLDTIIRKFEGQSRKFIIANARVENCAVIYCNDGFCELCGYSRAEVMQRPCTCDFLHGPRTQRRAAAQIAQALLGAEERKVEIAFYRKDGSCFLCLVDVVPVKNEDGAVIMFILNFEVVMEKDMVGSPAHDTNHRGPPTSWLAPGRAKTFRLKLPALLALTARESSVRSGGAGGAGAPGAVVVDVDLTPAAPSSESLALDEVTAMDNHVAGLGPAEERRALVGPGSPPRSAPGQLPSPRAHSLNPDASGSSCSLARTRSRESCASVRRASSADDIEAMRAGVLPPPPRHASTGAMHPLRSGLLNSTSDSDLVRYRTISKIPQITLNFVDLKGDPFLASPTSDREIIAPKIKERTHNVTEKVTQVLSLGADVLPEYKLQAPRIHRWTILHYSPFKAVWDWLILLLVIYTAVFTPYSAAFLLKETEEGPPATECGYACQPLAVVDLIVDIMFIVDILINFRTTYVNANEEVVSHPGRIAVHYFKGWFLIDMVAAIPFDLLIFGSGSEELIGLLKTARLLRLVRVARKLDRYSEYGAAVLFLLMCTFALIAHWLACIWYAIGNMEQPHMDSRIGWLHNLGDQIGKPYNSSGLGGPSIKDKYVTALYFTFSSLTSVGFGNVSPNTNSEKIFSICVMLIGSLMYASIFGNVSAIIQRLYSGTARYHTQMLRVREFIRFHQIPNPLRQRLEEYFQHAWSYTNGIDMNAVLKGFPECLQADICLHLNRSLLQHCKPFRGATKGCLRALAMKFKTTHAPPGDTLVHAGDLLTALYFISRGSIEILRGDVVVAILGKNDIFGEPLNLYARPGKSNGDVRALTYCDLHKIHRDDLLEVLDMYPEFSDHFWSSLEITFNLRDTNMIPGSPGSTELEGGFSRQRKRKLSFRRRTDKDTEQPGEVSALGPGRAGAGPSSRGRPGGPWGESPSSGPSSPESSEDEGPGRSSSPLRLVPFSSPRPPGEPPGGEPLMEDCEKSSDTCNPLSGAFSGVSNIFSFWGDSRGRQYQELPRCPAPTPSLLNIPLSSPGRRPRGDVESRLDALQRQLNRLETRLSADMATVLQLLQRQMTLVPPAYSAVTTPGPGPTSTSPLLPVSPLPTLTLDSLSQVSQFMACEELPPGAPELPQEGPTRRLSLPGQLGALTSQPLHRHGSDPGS

For CCCCC(=O)NC(c1ccc(N(CC)CC)cc1)c1ccc2cccnc2c1O (stereo not drawn), which “hERG current change (%, negative = inhibition) at 1uM” value is on record?
The value was 10.4%.

With COc1cccc(CNC(=O)CCS(=O)(=O)c2ccc3c(c2)CC(C)N3C(=O)C2CC2)c1 (stereo not drawn) as the molecule, how does the “hERG current change (%, negative = inhibition) at 1uM” value read?
Its value is 4.69%.

For COc1cccc(N(CC(=O)NCc2ccco2)C(=O)CCC(=O)Nc2nccs2)c1, which “hERG current change (%, negative = inhibition) at 1uM” value is on record?
The value was 12.5%.

Cc1ccc(C(=O)Nc2ccc(Cl)cc2C(=O)c2ccccc2)cc1 was tested. Which “hERG current change (%, negative = inhibition) at 1uM” value did it give?
Its value is 4.87%.

O=S(=O)(c1ccccc1)c1cnc(-c2cccnc2)nc1-c1ccc(Cl)c(Cl)c1 was tested. Which “hERG current change (%, negative = inhibition) at 1uM” value did it give?
The value was 6.84%.

Which “hERG current change (%, negative = inhibition) at 1uM” value does the source give for O=C(Nc1ccc(S(=O)(=O)Nc2nccs2)cc1)C(F)(F)F here?
Its value is 11.6%.

With O=C(C1CCC1)N1CCN(c2ccnc3cc(Cl)ccc23)CC1 as the molecule, how does the “hERG current change (%, negative = inhibition) at 1uM” value read?
Its value is -59.6%.

Which “hERG current change (%, negative = inhibition) at 1uM” value does the source give for CSc1ncccc1C(=O)N1CCCC(N2CCN(c3ccccc3F)CC2)C1 (stereo not drawn) here?
The value was 3.95%.

For Clc1ccc(CSc2nnc(-c3ccc4c(c3)OCO4)o2)cc1, which “hERG current change (%, negative = inhibition) at 1uM” value is on record?
Its value is 1.19%.

Which “hERG current change (%, negative = inhibition) at 1uM” value does the source give for Cc1ccc(-n2nc(C)c3c2NC(=O)CSC3c2ccc3c(c2)OCO3)cc1 (stereo not drawn) here?
The value was 13%.

With COc1ccc(-n2ccn(CC(=O)Nc3ccccc3OC)c(=O)c2=O)cc1 as the molecule, how does the “hERG current change (%, negative = inhibition) at 1uM” value read?
The value was 20.2%.

For CCOC(=O)C1Cc2ccccc2CN1.Cl (stereo not drawn), which “hERG current change (%, negative = inhibition) at 1uM” value is on record?
Its value is 1.39%.

Which “hERG current change (%, negative = inhibition) at 1uM” value does the source give for COc1ccc(CCNC(=O)CCCn2c(SCC(N)=O)nc3cc4c(cc3c2=O)OCO4)cc1OC here?
The value was 4.44%.

C/C(=N\NC(=O)c1ccc(O)cc1)c1cccc(NC(=O)c2ccc(Cl)cc2)c1 was tested. Which “hERG current change (%, negative = inhibition) at 1uM” value did it give?
The value was 13.7%.

Which “hERG current change (%, negative = inhibition) at 1uM” value does the source give for CC(OC(=O)c1ccc2c(c1)S(=O)(=O)c1ccccc1C2=O)C(N)=O (stereo not drawn) here?
Its value is 16.9%.

How did the “hERG current change (%, negative = inhibition) at 1uM” value turn out when O=C(CN(Cc1ccco1)C(=O)Cn1nnc(-c2ccc(F)cc2)n1)NC1CCCC1 was run?
The value was -16.2%.

For COc1ccc(NC(=O)COc2ccccc2)cc1NC(=O)c1ccco1, which “hERG current change (%, negative = inhibition) at 1uM” value is on record?
The value was -1.15%.

With O=C(Nc1cccc2ccccc12)c1cccc([N+](=O)[O-])c1 as the molecule, how does the “hERG current change (%, negative = inhibition) at 1uM” value read?
The value was 9.63%.

For Cc1nc(-c2ccccc2)sc1C(=O)CSc1ccccc1, which “hERG current change (%, negative = inhibition) at 1uM” value is on record?
Its value is 5.39%.

For O=C(CCN1C(=O)C2C3C=CC(C4CC34)C2C1=O)Nc1ccc(Cl)cc1O (stereo not drawn), which “hERG current change (%, negative = inhibition) at 1uM” value is on record?
The value was 10.9%.

CC(C)N1CC(O)=C(c2nc3ccccc3c(=O)[nH]2)C1=N was tested. Which “hERG current change (%, negative = inhibition) at 1uM” value did it give?
Its value is 3.02%.

O=C(C1CCN(c2ncnc3c2nc2n3CCCCC2)CC1)N1CCN(c2ccccc2F)CC1 was tested. Which “hERG current change (%, negative = inhibition) at 1uM” value did it give?
The value was -18.6%.

With Cc1nonc1CN(C)C(=O)c1ccc(OC2CCN(Cc3ccccn3)CC2)cc1 as the molecule, how does the “hERG current change (%, negative = inhibition) at 1uM” value read?
The value was -3.61%.

How did the “hERG current change (%, negative = inhibition) at 1uM” value turn out when Fc1ccc(/C=N/N2CCN(Cc3ccccc3)CC2)cc1 was run?
Its value is -6.05%.

For CCSc1nnc(Cc2cc(=O)[nH]c(=O)[nH]2)n1-c1ccc(Cl)cc1, which “hERG current change (%, negative = inhibition) at 1uM” value is on record?
The value was 5.25%.

For O=C(COc1ccc2ccccc2c1Br)Nc1ccncc1, which “hERG current change (%, negative = inhibition) at 1uM” value is on record?
Its value is 24.6%.

Which “hERG current change (%, negative = inhibition) at 1uM” value does the source give for Cc1ccc(NC(=O)C2CCN(S(=O)(=O)c3c(C)n[nH]c3C)CC2)nc1 here?
The value was 0.34%.

How did the “hERG current change (%, negative = inhibition) at 1uM” value turn out when O=C(Nc1cccc(F)c1)C1CCN(C(=O)N2CCOc3ccccc32)CC1 was run?
Its value is -2.95%.

How did the “hERG current change (%, negative = inhibition) at 1uM” value turn out when COc1ccc(N2C(=O)CC(N3CCN(c4ccccc4OC)CC3)C2=O)cc1 (stereo not drawn) was run?
The value was 11.7%.

Cc1ccccc1N(CC(=O)N/N=C/c1ccc(F)cc1)C(=O)c1ccccc1 was tested. Which “hERG current change (%, negative = inhibition) at 1uM” value did it give?
The value was -2.14%.

How did the “hERG current change (%, negative = inhibition) at 1uM” value turn out when COc1ccc(Cl)cc1-c1nc(SCC(=O)NCCN2C(=O)CSC2=O)n[nH]1 was run?
The value was 10.1%.

How did the “hERG current change (%, negative = inhibition) at 1uM” value turn out when Cc1noc(C)c1C(=O)NCCc1ccc(S(N)(=O)=O)cc1 was run?
The value was -9.22%.

How did the “hERG current change (%, negative = inhibition) at 1uM” value turn out when COc1ccc(S(=O)(=O)NCCCN2CCCC2=O)cc1OC was run?
The value was 0.602%.

How did the “hERG current change (%, negative = inhibition) at 1uM” value turn out when C=CCN1C(=O)/C(=C\c2ccc(N3CCOCC3)o2)C(=O)NC1=S was run?
Its value is 5.44%.

CCOC(=O)C1CCCN(c2c(NCCN3CCCCC3C)c(=O)c2=O)C1 (stereo not drawn) was tested. Which “hERG current change (%, negative = inhibition) at 1uM” value did it give?
The value was 10.8%.

With O=C1Nc2ccc([N+](=O)[O-])cc2OC1CCN1CCCC1 (stereo not drawn) as the molecule, how does the “hERG current change (%, negative = inhibition) at 1uM” value read?
The value was 13.1%.

For c1ccc(N2CCN(c3nnc(Cc4cccnc4)c4ccccc34)CC2)nc1, which “hERG current change (%, negative = inhibition) at 1uM” value is on record?
Its value is -4.9%.

CCN(CC)c1ccc(/C=C2\SC(N)=NC2=O)cc1 was tested. Which “hERG current change (%, negative = inhibition) at 1uM” value did it give?
Its value is 6.17%.

O=C(C(=O)N1CCN(c2ccc(F)cc2)CC1)c1c[nH]c2ccccc12 was tested. Which “hERG current change (%, negative = inhibition) at 1uM” value did it give?
Its value is 2.91%.

With CCC(C(=O)Nc1c2c(nn1C(C)(C)C)CS(=O)(=O)C2)c1ccccc1 (stereo not drawn) as the molecule, how does the “hERG current change (%, negative = inhibition) at 1uM” value read?
The value was -13.7%.

Which “hERG current change (%, negative = inhibition) at 1uM” value does the source give for COc1ccc(OC)c(CN2C(=O)c3ccccc3C2C(=O)NCc2cccnc2)c1 (stereo not drawn) here?
Its value is 13%.

With Cc1sc2ncnc(NCC(c3ccco3)N(C)C)c2c1C.O=C(O)C(=O)O (stereo not drawn) as the molecule, how does the “hERG current change (%, negative = inhibition) at 1uM” value read?
Its value is 4.18%.
